Laboratory results reported in article PMC4336329 (PLoS ONE, 2015).
In all, about 310,000 compounds went through this assay and about 14,000 (4.5%) showed an effect of 50% or more. Effects have a minus sign here. Some of the results follow.

Biological target: human ether-à-go-go-related gene (hERG) potassium channel (human, UniProt Q12809)
Test: primary screen, population patch clamp on CHO cells stably expressing hERG
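Further: peak tail current of the secondary pulse compared with the same well before compound.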

human ether-à-go-go-related gene (hERG) potassium channel, sequence (Q12809 whole entry, looked up): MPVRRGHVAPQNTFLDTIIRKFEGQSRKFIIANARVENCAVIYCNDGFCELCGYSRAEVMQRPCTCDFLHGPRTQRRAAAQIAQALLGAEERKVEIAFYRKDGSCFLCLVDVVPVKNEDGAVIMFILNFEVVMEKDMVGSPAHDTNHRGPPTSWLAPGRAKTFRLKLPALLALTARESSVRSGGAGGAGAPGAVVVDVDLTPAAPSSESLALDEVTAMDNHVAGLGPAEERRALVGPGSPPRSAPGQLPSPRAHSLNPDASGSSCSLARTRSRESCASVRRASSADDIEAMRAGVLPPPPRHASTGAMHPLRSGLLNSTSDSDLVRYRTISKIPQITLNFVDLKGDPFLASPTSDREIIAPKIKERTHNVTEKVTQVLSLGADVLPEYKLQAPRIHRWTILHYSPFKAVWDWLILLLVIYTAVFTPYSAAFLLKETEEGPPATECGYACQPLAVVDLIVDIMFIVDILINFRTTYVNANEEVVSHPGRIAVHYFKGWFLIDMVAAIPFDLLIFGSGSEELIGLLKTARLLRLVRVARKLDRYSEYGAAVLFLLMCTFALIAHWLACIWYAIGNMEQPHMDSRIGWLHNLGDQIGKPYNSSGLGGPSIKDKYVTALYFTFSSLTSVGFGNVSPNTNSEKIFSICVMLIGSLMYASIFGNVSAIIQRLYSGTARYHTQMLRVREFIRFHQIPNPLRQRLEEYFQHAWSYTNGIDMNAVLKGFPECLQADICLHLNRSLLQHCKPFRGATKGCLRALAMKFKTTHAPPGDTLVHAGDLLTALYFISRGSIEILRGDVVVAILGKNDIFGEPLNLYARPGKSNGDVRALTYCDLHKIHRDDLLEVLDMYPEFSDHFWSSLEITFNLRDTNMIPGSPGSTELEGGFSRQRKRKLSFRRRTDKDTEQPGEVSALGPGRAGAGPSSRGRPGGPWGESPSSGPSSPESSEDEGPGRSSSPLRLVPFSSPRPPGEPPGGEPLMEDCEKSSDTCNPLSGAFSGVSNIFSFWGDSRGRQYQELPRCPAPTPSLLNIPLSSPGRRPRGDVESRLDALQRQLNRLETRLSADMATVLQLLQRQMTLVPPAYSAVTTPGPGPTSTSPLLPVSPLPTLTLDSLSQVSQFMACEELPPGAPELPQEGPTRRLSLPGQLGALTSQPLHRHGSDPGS

SMILES	hERG current change (%, negative = inhibition) at 10uM
COc1cccc(NC(=O)COc2ccc(C(=O)N3CCN(C)CC3)cc2)c1	15.8%
c1ccc(CCNc2nc(-c3cccnc3)cs2)cc1	-42.7%
COCCc1nn2c(=O)cc(COC(=O)c3cc(OC)c(OC)c(OC)c3)nc2s1	-22.6%
CC(C)NC(=O)c1ccc(Cl)cc1Cl	13.8%
CN(C)/C=C1\C(=O)N(C)N=C1C(F)(F)F	-2.18%
O=C(CCc1nc2ccccc2c(=O)[nH]1)NCc1ccco1	-24.1%
O=C(CN1CCc2ccccc21)NCc1ccc2c(c1)OCO2	3.88%
Cc1ccc(C)c(OCC(=O)Nc2ccc(S(=O)(=O)Nc3onc(C)c3C)cc2)c1	13.2%
COCCn1c(SCC(=O)N2CC(C)OC(C)C2)nc2c([nH]c3ccccc32)c1=O (stereo not shown)	-7.07%
CC(NS(=O)(=O)c1ccc(Cl)cc1)C(=O)OCC(=O)c1ccc[nH]1 (stereo not shown)	-13.9%
Cc1nn(C)c(C)c1/C=N/NC(=O)c1csc2ccccc12	-2.45%
O=[N+]([O-])c1ccc2n[nH]nc2c1	11.4%
O=C(NNC(=O)C1CC(c2cccs2)=NO1)NC1CCCCC1 (stereo not shown)	21.5%
O=C(CN1C(=O)c2ccccc2S1(=O)=O)NCc1ccccn1	2.89%
C=CCNC(=O)Nc1ccc2nc(C)sc2c1	28.2%
COc1ccc(-c2csc(N(CCc3ccccc3)C(=O)COc3ccccc3)n2)cc1	17.9%
COc1ccc(/C=C/C(=O)NC(=S)Nc2ccc(S(=O)(=O)Nc3nccnc3OC)cc2)cc1	-7.32%
O=C(Nc1ccc(F)cc1)C1COc2ccccc2O1 (stereo not shown)	9.07%
COC(C(=O)NNS(=O)(=O)c1ccc([N+](=O)[O-])cc1)c1ccccc1 (stereo not shown)	5.31%
O=C(CCn1c(=O)[nH]c2ccccc2c1=O)N1CC=C(c2ccccc2)CC1	2.8%
Cc1cccc(NC(=O)c2ccc3c(c2)C(=O)N(Cc2cccnc2)C3=O)c1C	2.77%
Cn1nnnc1SCC(=O)N1CCCCC1	-3.29%
CCCCCc1cc(O)c2c(C)cc(=O)oc2c1	9.67%

SMILES	hERG current change (%, negative = inhibition) at 10uM
COc1ccc(C(=O)CSc2ncn[nH]2)cc1OC	-1.18%
O=C(c1cc([N+](=O)[O-])ccc1N1CCOCC1)N1CCCCC1	-0.41%
Cc1nc(Cl)cc(N/N=C/c2ccccc2)n1	14.3%
O=C(NCc1ccccn1)c1ccc(Cl)c(S(=O)(=O)Nc2ccccc2C(=O)NCc2ccccn2)c1	5.07%
CSc1nnc(-c2ccccc2Cl)o1	10.6%
Cc1c(C(=O)N(C)Cc2cccc(F)c2)oc2c(Cl)cccc12	9.18%
Cl.Oc1cccc(Nc2nc(NCC3CCCO3)c3ccccc3n2)c1 (stereo not shown)	-61.4%
Cc1c(NC(=O)C2CCCNC2=O)c(=O)n(-c2ccccc2)n1C (stereo not shown)	4.41%
CCOC(=O)c1c(C)[nH]c(C(=O)COC(=O)CNC(=O)c2ccc(Br)cc2)c1C	1.36%
Cn1c(=O)c2c(n(C)c1=O)=NC1(CCCCC1)N=2	6.48%
CCOc1ccc(CNC(=O)C2CCN(S(=O)(=O)N3CCCC3)CC2)cc1OC	10.6%
Fc1cccc(Cc2noc(CN3CCC(c4ccncc4)CC3)n2)c1	-21.4%
COc1cccc(CNS(=O)(=O)c2cc(Br)cc3c2N(C(C)=O)C(C)C3)c1 (stereo not shown)	-27.3%
COc1ccccc1C(=O)NC1CCCCCCC1	5.2%
O=C(c1cnccn1)N(Cc1ccco1)C1(C(=O)NC2CCCC2)CCCCC1	1.3%
COc1ccc(CC2NCCC3=CC(=O)CCC32)cc1O (stereo not shown)	12.3%
CCOc1ccc(-n2c(=O)[nH]cc(C(=O)N3CCCc4ccccc43)c2=O)cc1	-9.75%
CCCNC(=O)N1C2=NC(C(=O)OC)=C(C(=O)OC)[C@@H]3N(Cc4ccccc4)c4ccccc4[C@]23C[C@H]1CO	-9.75%
Cc1ccsc1/C=N/NC(=O)CNC(=O)c1ccco1	18.6%
Cc1cc(C)c(S(=O)(=O)Nc2ccnc(-c3cccnc3)n2)c(C)c1	13.4%
O=C(NCC1CCCN1S(=O)(=O)c1cccs1)C(=O)Nc1ccc(F)cc1 (stereo not shown)	-47.5%
Cc1nc2ccc(C(=O)N/N=C/c3ccccc3O)cc2[nH]1	9.25%
CC(=O)Oc1c(Br)cc(N(C(C)=O)S(=O)(=O)c2ccccc2)c2ccccc12	15.3%
